{
  "source": "ChEMBL document CHEMBL1201862",
  "about": "“PubChem BioAssay data set” (2004)",
  "note": "Values joined by “and” are separate entries in the source; they are usually repeats but may differ in a detail not shown here. Identical values can stand only once.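 Exposure lasted 48 hours, with cells grown in 96-well plates and compounds tested at five concentrations. GI50 marks 50% less growth.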 Active and inactive are the calls of the source. Cut-off read from the data, not from the text of the source: active = GI50 up to about 1.1 µM and inactive = higher.",
  "data": [
    {"test_system": "NCI-H322M", "assay": "NCI tumour cell line growth inhibition, 48 h", "values": [
      {"smiles": "Cn1ccc(C(=O)NCCN(CCNC(=O)c2ccn(C)c(=O)c2O)CCNC(=O)c2cccc(=O)n2O)c(O)c1=O", "GI50": "inactive: > 100 µM"},
      {"smiles": "CC12C3C4C1C1C2C3C41CO", "note": "(stereo not drawn)", "GI50": "inactive: > 100 µM"},
      {"smiles": "Cc1cn(CCCCCOC(=O)NC(CCCNC(=N)N)C(=O)O)c(=O)[nH]c1=O", "note": "(stereo not drawn)", "GI50": "inactive: 69.7 µM"},
      {"smiles": "O=C(CC(=O)Nc1ccc(Cl)cc1)NNCC(=O)Nc1nc(-c2ccccc2)cs1", "GI50": "inactive: > 100 µM"},
      {"smiles": "Cc1ccc(S(=O)(=O)N2CCSCCSCCN(S(=O)(=O)c3ccc(C)cc3)CCN(S(=O)(=O)c3ccc(C)cc3)CC2)cc1", "GI50": "inactive: > 100 µM"},
      {"smiles": "CC(=O)c1cc2c(s1)C(=O)c1scc(C(C)=O)c1C2=O", "GI50": "active: 0.469 µM"},
      {"smiles": "COC(=O)C(=O)C(CC(=O)Nc1c(C)cccc1C)C(=O)OC", "note": "(stereo not drawn)", "GI50": "inactive: > 100 µM"},
      {"smiles": "CC(NNC(=O)c1cc[n+]([BH2-]C#N)cc1)c1ccc(F)cc1", "note": "(stereo not drawn)", "GI50": "inactive: > 100 µM"},
      {"smiles": "Fc1cccc2cc3ccc4cccc5ccc(c12)c3c45", "GI50": "inactive: 36.6 µM"},
      {"smiles": "O=C(O)c1cc(NC2=C(Cl)C(=O)c3c(O)ccc(O)c3C2=O)ccc1O", "GI50": "inactive: > 10 µM"},
      {"smiles": "CC1=NN(c2cccc(Cl)c2)C2(C1=Cc1ccccc1)C(Cl)C(=O)N2c1nc2ccccc2s1", "note": "(stereo not drawn)", "GI50": "inactive: 23.4 µM"},
      {"smiles": "CSc1c(CC(=O)O)n(Cc2ccccc2)c2ccccc12", "GI50": "inactive: > 100 µM"},
      {"smiles": "NC1CCC(c2cc3ccccc3s2)(N2CCCCC2)CC1", "note": "(stereo not drawn)", "GI50": "inactive: 1.17 µM"},
      {"smiles": "CSc1ccccc1NC1=NCCO1", "GI50": "inactive: > 100 µM"},
      {"smiles": "CCOC(=O)CC(=O)Sc1ccccc1", "GI50": "inactive: 25.5 µM"},
      {"smiles": "CN(C(=O)Cc1ccccc1)n1cn[n+](CC(=O)OC(C)(C)C)c1", "GI50": "inactive: > 10 µM"},
      {"smiles": "NC(=O)NCCCC(NC(=O)OCCCCn1ccc(=O)[nH]c1=O)C(=O)O", "note": "(stereo not drawn)", "GI50": "inactive: > 100 µM"},
      {"smiles": "N#CC1(C#N)C2CCCCC23OC(=N)C1(C#N)C(c1ccco1)O3", "note": "(stereo not drawn)", "GI50": "inactive: > 100 µM"},
      {"smiles": "COC(=O)C1=C(O)C(C(=O)OC)[C@@]2(O)[C@@H](C(=O)OC)C(c3ccc(OC(=O)/C(=C/c4ccccc4)c4ccccc4)cc3)C[C@@H]1[C@@H]2C(=O)OC", "note": "(stereo partly drawn)", "GI50": "inactive: > 100 µM"},
      {"smiles": "CCNC(=O)Nc1cccc(NC(=O)NCC)n1", "GI50": "inactive: > 100 µM"},
      {"smiles": "COc1ccc(Cn2nc(OCc3ccccn3)c3cc([N+](=O)[O-])ccc32)cc1", "GI50": "inactive: > 100 µM"},
      {"smiles": "CN(C)CCN(C)c1ccc2c(=O)n(CCN(C)C)c(=O)n3c4ccccc4c(=O)c1c23", "GI50": "active: 0.555 µM"},
      {"smiles": "COc1ccc(-c2cc3c(nn2)-c2ccccc2C3=O)cc1", "GI50": "inactive: > 10 µM"},
      {"smiles": "Cc1cccc(NC(N)=S)c1", "GI50": "inactive: > 100 µM"},
      {"smiles": "O=C(O)C1CCCCN1C(=O)c1ccccc1", "note": "(stereo not drawn)", "GI50": "inactive: > 100 µM"},
      {"smiles": "CC1=CP(=O)(c2c(C(C)C)cc(C(C)C)cc2C(C)C)CCC1Cl", "note": "(stereo not drawn)", "GI50": "inactive: 14.6 µM"},
      {"smiles": "O=CNCNCCO", "GI50": "inactive: > 100 µM"},
      {"smiles": "CC1(C)OCC[C@@H]1[Si](C)(C)C", "GI50": "inactive: > 100 µM"},
      {"smiles": "CCOC(=O)c1nc2ccc(C(F)(F)F)cc2nc1Oc1ccc(C(=O)OC)cc1", "GI50": "inactive: > 100 µM"},
      {"smiles": "COc1cc(C(C#N)NNC(=O)c2ccccc2O)ccc1O", "note": "(stereo not drawn)", "GI50": "inactive: 3.95 µM"},
      {"smiles": "CCCCOC(=O)c1cc(C(=CCC[C@H]2CC[C@@]3(C)[C@@H](CC[C@@H]4[C@@H]3CC[C@]3(C)[C@@H](C(C)CCCC(C)C)CC[C@@H]43)C2)c2cc(Cl)c(O)c(C(=O)OCCCC)c2)cc(Cl)c1O", "note": "(stereo partly drawn)", "GI50": "inactive: > 50 µM"},
      {"smiles": "CC(NC(=O)C(OC(=O)C(C)NC(=O)OC(C)(C)C)C(C)C)C(=O)OC(C(=O)O)C(C)C", "note": "(stereo not drawn)", "GI50": "inactive: > 100 µM"},
      {"smiles": "O=c1[nH]nc(-c2ccccc2)c(-c2ccccc2)c1-n1nc(-c2ccccc2)c2ccccc2c1=O", "GI50": "inactive: > 100 µM"},
      {"smiles": "CC(NS(C)(=O)=O)c1ccccc1", "note": "(stereo not drawn)", "GI50": "inactive: > 100 µM"},
      {"smiles": "Nc1nc(N)c(-c2ccccc2)c(CCC(=O)Nc2ccc(Cl)cc2)n1", "GI50": "inactive: > 100 µM"},
      {"smiles": "COC1=C(C)C(=O)C2=C(C1=O)C(CO)N1C(C#N)C3CC4C(C1C2N1CCOC41)N3C", "note": "(stereo not drawn)", "GI50": "active: 242 nM and active: 282 nM"},
      {"smiles": "CN(C)CCCNC(=O)CCNC(=O)c1cc(NC(=O)c2cc(NC(=O)c3cc(NC(=O)CCCNC(=O)c4cc(NC(=O)c5cc(NC(=O)c6nccn6C)cn5C)cn4C)cn3C)cn2C)cn1C", "GI50": "inactive: > 100 µM"},
      {"smiles": "CC(C(=O)c1ccccc1)C1(O)C(=O)Nc2ccccc21", "note": "(stereo not drawn)", "GI50": "inactive: > 100 µM"},
      {"smiles": "COc1ccccc1/C=C1\\Sc2scc(-c3cccc([N+](=O)[O-])c3)[n+]2C1=O", "GI50": "inactive: 16.3 µM"},
      {"smiles": "CC(=O)Oc1c(C)n(CCCl)ccc1=O", "GI50": "inactive: 86.7 µM"},
      {"smiles": "N#CC(C#N)/N=N/c1ccc(-c2nc3ccccc3o2)cc1", "GI50": "inactive: 23.3 µM"},
      {"smiles": "N=C(N)NC1C(O)C(O)C(O)C(NC(=N)N)C1O", "note": "(stereo not drawn)", "GI50": "inactive: > 100 µM"},
      {"smiles": "CCCCCCCCCCCCCCCCCCNc1nc(=O)n(C2CC(O)C(COP(=O)(O)OCC3OC(n4ccc(N)nc4=O)C(O)C3O)O2)cc1F", "note": "(stereo not drawn)", "GI50": "inactive: 32.4 µM"},
      {"smiles": "O=C1CCCn2c3ccccc3c3ccnc1c32", "GI50": "inactive: 38.9 µM"},
      {"smiles": "COc1ccc2c(c1)[n+]([O-])c(C(=O)C/C(=N\\NC(=O)C[N+](C)(C)C)C(=O)Nc1cc(Cl)ccc1Cl)c(C)[n+]2[O-]", "GI50": "inactive: > 100 µM"},
      {"smiles": "O=C(CC(=O)C(=O)Nc1ccccc1)CC(c1ccccc1)c1c(O)c2ccccc2oc1=O", "note": "(stereo not drawn)", "GI50": "inactive: > 100 µM"},
      {"smiles": "C=C1C(=O)O[C@@H]2C=C(C)C3=CC(=O)[C@](C)(C[C@H](OC(=O)/C(C)=C\\C)[C@@H]12)O3", "GI50": "inactive: 3.51 µM"},
      {"smiles": "COc1ccc([C@@]2(O)c3c(ccc(O)c3OC)[C@H]2OC)c(OC)c1", "GI50": "inactive: 60.8 µM"},
      {"smiles": "N#CC(C#N)=Cc1c(O)ccc2ccccc12", "GI50": "inactive: 17.3 µM"},
      {"smiles": "CN(C(=O)c1ccccc1)C1CCCC(=O)CC1", "note": "(stereo not drawn)", "GI50": "inactive: > 100 µM"},
      {"smiles": "CC1(C)OC(C(=O)Nc2cc3c4ccccc4ccc3c3ccccc23)C(C(=O)N2CCCCC2)O1", "note": "(stereo not drawn)", "GI50": "inactive: > 83 µM"},
      {"smiles": "COC(=O)Nc1nc2cc(Br)ccc2[nH]1", "GI50": "inactive: 36.6 µM"},
      {"smiles": "Cc1ccc(S(=O)(=O)N2CCN(S(=O)(=O)c3ccc(C)cc3)CCN(S(=O)(=O)c3ccc(C)cc3)Cc3cc(Br)c(Br)cc3CN(S(=O)(=O)c3ccc(C)cc3)CC2)cc1", "GI50": "inactive: 89.1 µM"},
      {"smiles": "CCCCOc1ccc(NC(=N)Nc2ccc(Cl)cc2)cc1", "GI50": "inactive: 4.22 µM"},
      {"smiles": "CCc1n[nH]c(=O)n1NC(=O)/C=C\\C(=O)O", "GI50": "inactive: > 100 µM"},
      {"smiles": "OC(c1ccccc1)c1c(-c2ccccc2)oc(-c2ccccc2)c1C(O)c1ccccc1", "note": "(stereo not drawn)", "GI50": "inactive: 12.6 µM"},
      {"smiles": "COc1cc([C@@H]2c3cc4c(cc3[C@@H](OC(=O)c3ccccc3)C3COC(=O)[C@@H]32)OCO4)cc(OC)c1O", "note": "(stereo partly drawn)", "GI50": "active: 0.0264 µM"},
      {"smiles": "O=C(O)COc1ccc(C(=O)/C(SS/C(C(=O)c2ccc(OCC(=O)O)c(Cl)c2Cl)=C2\\C=C(c3ccc(Br)cc3)SS2)=C2/C=C(c3ccc(Br)cc3)SS2)c(Cl)c1Cl", "GI50": "inactive: 39.5 µM"},
      {"smiles": "O=C(N/N=C1/C(=O)N(c2ccc(Cl)cc2Cl)C(=O)C(=O)C1c1nc2ccccc2o1)c1ccccc1O", "note": "(stereo not drawn)", "GI50": "inactive: 41.3 µM"},
      {"smiles": "CCOP(=O)(/C=C\\n1ccc(N)nc1=O)OCC", "GI50": "inactive: > 100 µM"},
      {"smiles": "CC(=O)C(=Cc1cn(C)c(=O)n(C)c1=O)C(C)=O", "GI50": "inactive: 74 µM"},
      {"smiles": "Cc1ccccc1NC(=O)C(=O)C(C#N)c1ccc(Cl)cc1", "note": "(stereo not drawn)", "GI50": "inactive: 75.9 µM"},
      {"smiles": "CC(C)OP(=O)(OC(C)C)c1c(N)n[nH]c1Nc1ccccc1", "GI50": "inactive: > 100 µM"}
    ]}
  ]
}
